# From PubChem BioAssay AID504832 (National Center for Advancing Translational Sciences (NCATS), 2011)
# In all, about 310,000 compounds went through this assay and about 18,000 (5.8%) were called active. The shares of active, inactive and inconclusive entries below differ from those in the screen. The call rests on the fitted dose curve; in most records, active means well fitted inhibition curve with a large enough effect; inconclusive means small, poorly fitted or top-dose-only effect, or another doubt; inactive means no such curve, though single readings can be large or run the other way. Potencies of inconclusive entries are left out as doubtful fits.
# Assay: Primary qHTS for delayed death inhibitors of the malarial parasite plastid, 48 hour incubation
# Settings: P. falciparum luciferase growth in erythrocytes; series mostly up to 28.7 µM; activity change, negative = inhibition: at the top concentration
# Procedure, shortened: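 A one-generation exposure of luciferase-tagged malaria parasites in RPMI 1640/Albumax erythrocyte culture, 37 C and 5% CO2. Inhibition is inferred from decreased luminescence after adding detection reagent.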
# On the % scale 0 is the no-effect control and ±100 the full control effect; potency means the concentration at half of the fitted maximal effect; tags describe the fitted curve by direction and shape.
SMILES,Potency,"activity change, negative = inhibition"
CCOC(=O)N1CCC(NC(=O)c2ccc3c(c2)sc2nc(-c4cccc(OC)c4)cn23)CC1,active: 7.38 µM,
CC(=O)Nc1ccc(OCC(O)Cn2c3ccccc3c3ccccc32)c(C)c1 (stereo not drawn),"inconclusive [inhibitor, partial curve, poor fit]",
O=C(CSc1nncs1)N1c2ccccc2Sc2ccccc21,active: 13.1 µM,
COc1ccc(NC(=O)c2sc3ncn(CC(=O)N4CCN(c5ccccn5)CC4)c(=O)c3c2C)cc1OC,"inconclusive [inhibitor, full curve, poor fit]",
COc1ccccc1NC(=O)CSc1nc2sc3c(c2c(=O)n1-c1ccccc1)CCN(C)C3,active: 1.65 µM,
O=C(C1CC1)N(CCN(Cc1ccccc1)C(=O)C1CC1)Cc1ccccc1,"inconclusive [inhibitor, single point]",
Cc1ccc(NS(=O)(=O)c2ccc(-c3csc(C)n3)s2)c(C)c1,,inactive: 9.31%
CSc1nncc(-c2ccc(F)c(F)c2)n1,"inconclusive [inhibitor, partial curve, poor fit]",
CCN(CC)S(=O)(=O)c1c(OC)cc(C)c(Cl)c1C,"inconclusive [inhibitor, partial curve, poor fit]",
O=S(=O)(c1ccc(F)cc1)n1ccc(-c2cccc(OCc3ccc(Cl)cc3Cl)c2)n1,"inconclusive [inhibitor, partial curve]",
CCN1C(=NCc2ccc(OC)cc2)N[C@@H](c2ccccc2)C(C(=O)OC)=C1C,inactive,
COc1ccc(C(=O)Nc2ccc(O)c3c(=O)cc(-c4cccc(Cl)c4)oc23)cc1,,inactive: 3.43%
O=C(Nc1cccc2ncccc12)c1cc([N+](=O)[O-])ccc1Cl,,inactive: 5.26% [at 0.00184 µM]
Cc1occc1C(=O)Nc1cc(S(=O)(=O)N2CCOCC2)ccc1OC(C)C,"inconclusive [inhibitor, partial curve]",
O=C(O)C1CC=CCC1C(=O)N1CC=C(c2ccccc2)CC1 (stereo not drawn),,inactive: 22.3%
CNc1ccc(C(=O)N2CCN(S(=O)(=O)c3ccc4c(c3)OCCCO4)CC2)cc1[N+](=O)[O-],"inconclusive [inhibitor, partial curve]",
CCN(CC)S(=O)(=O)c1ccc(S(=O)(=O)N(Cc2ccccn2)Cc2ccco2)cc1,"inconclusive [inhibitor, partial curve, poor fit]",
O=C(On1c(-c2ccccc2)nc2ccccc2c1=O)c1ccco1,"inconclusive [inhibitor, single point]",
Cc1cc2c(C)cc(=O)[nH]c2cc1NC(=O)CCl,"inconclusive [inhibitor, partial curve, poor fit]",
CNC(=S)N1CCN(c2ccc([N+](=O)[O-])cc2)CC1,"inconclusive [inhibitor, single point]",
CC(C(=O)Nc1ccc2c(c1)OCCO2)N1Cc2ccccc2C1=O (stereo not drawn),,inactive: 45.4%
CCCCCCCc1ccc(-c2ccc(O)cc2)nc1,"inconclusive [inhibitor, single point]",

SMILES,Potency,"activity change, negative = inhibition"
CCc1c(C)nc2ncnn2c1NCCc1ccc(OC)c(OC)c1,"inconclusive [inhibitor, single point]",
Cc1cc(C(=O)NCCCN2CCOCC2)n(-c2ccccc2)n1,,inactive: 15.9%
CCOC(=O)C1=C(CP(=O)(c2ccccc2)c2ccccc2)NC(=O)NC1c1ccc(Cl)cc1 (stereo not drawn),"inconclusive [inhibitor, partial curve]",
Cc1ccccc1NC(=O)Cn1nnc(S(=O)(=O)c2ccc(C(C)(C)C)cc2)c1N,,inactive: 20.2%
NC(=O)c1ccc[n+]([C@@H]2O[C@H](COP(=O)([O-])OP(=O)(O)OC[C@H]3O[C@@H](n4cnc5c(N)ncnc54)[C@@H](O)[C@@H]3O)[C@@H](O)[C@@H]2O)c1,,inactive: -7.58% [at 12.8 µM]
COc1ccc(C(=O)Nc2ccc3ncccc3c2)cc1,,inactive: 0%
COc1ccccc1NC(=O)N1CCN(c2ccc3nnc(-c4ccc(F)cc4)n3n2)CC1,"inconclusive [inhibitor, partial curve]",
Cc1ccc(NC(=O)CN2c3cccc4cccc(c34)S2(=O)=O)cc1S(=O)(=O)N1CCOCC1,"inconclusive [inhibitor, partial curve, poor fit]",
COCCNC(=S)NNC(=O)c1cc(C2CC2)nc2ccccc12,"inconclusive [inhibitor, partial curve, poor fit]",
CC(=O)OC1C(N2CCCCC2)c2c(ccc(/C=C/C(=O)N3CCCCC3)c2O)OC1(C)C (stereo not drawn),"inconclusive [inhibitor, full curve, poor fit]",
COc1cc2c(cc1OC)-c1cc(NC3CCCCCCC3)nc(=O)n1CC2,"inconclusive [inhibitor, single point]",
Cn1c(SCc2nc3ccccc3[nH]2)nnc1-c1cccs1,"inconclusive [inhibitor, partial curve, poor fit]",
COCc1cc(C)nc(NCCO)c1C#N,,inactive: 61.8%
O=C(Nc1nc(-c2ccccn2)cs1)C1CC1,"inconclusive [inhibitor, single point]",
O=C(CN(C1CCCCC1)S(=O)(=O)c1ccc(Cl)cc1)NCc1cccnc1,"inconclusive [inhibitor, partial curve, poor fit]",
COc1ccccc1-c1cc(C(=O)Nc2cc(C)n(Cc3ccc(Cl)cc3)n2)no1,active: 5.86 µM,
O=S(=O)(c1ccc(SCCOc2ccc(F)cc2)nc1)N1CCCC1,"inconclusive [inhibitor, single point]",
Clc1ccc(C2=CSC3=Nc4cccc5cccc(c45)N23)cc1,active: 1.85 µM,
Cc1ccc(N2CCN(c3ccc(C)cc3)C(CC(=O)O)C2=O)cc1 (stereo not drawn),active: 11.7 µM,
Nc1ccc(C(=O)N/N=C\c2cc(N=Nc3cccc4ccccc34)ccc2O)cc1,active: 2.94 µM,
COC(=O)C1=C(c2ccc(-c3ccccc3)c(F)c2)C[C@@H]2CC[C@H]1N2C(=O)N1CCCCC1,active: 10.4 µM,
